Experimental data reported in PubChem BioAssay AID1240 (Sanford-Burnham Center for Chemical Genomics, 2008).
Among all 50,000 compounds or so, about 800 (1.6%) showed an effect of 50% or more. The list shows a part of the results.

molecular target: Bcl-2-like protein 10 (Homo sapiens) (UniProt Q9HD36); test: Phenotype converters, Bcl-B/TR3 peptide binding displacement, primary biochemical FP (AID 1240); details: GST-Bcl-B / FITC-TR3 peptide fluorescence polarization; stronger effect = higher value; compound at 3.75 mg/L;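 also: 0% = Bcl-B with tracer peptide and DMSO and 100% = tracer peptide lacking Bcl-B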
UniProt Q9HD36, sequence (Q9HD36 whole entry, looked up): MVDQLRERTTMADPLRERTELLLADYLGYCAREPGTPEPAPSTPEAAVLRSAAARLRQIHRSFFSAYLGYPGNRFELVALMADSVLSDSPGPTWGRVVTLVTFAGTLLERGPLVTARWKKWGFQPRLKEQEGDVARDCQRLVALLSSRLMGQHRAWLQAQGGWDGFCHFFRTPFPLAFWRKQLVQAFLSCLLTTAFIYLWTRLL

SMILES | displacement [%]
CSc1nc(-c2ccccc2)nc(N)c1C(C)=O | 2.6
Cc1ccc(C(=O)Oc2ccc(C=C3C(=O)NC(=O)NC3=O)cc2)cc1 | 8.7
CC(=O)N1c2ccccc2NC2=C(C(=O)CC(C)(C)C2)C1c1ccc(Cl)cc1 (centres undefined) | 5.3
COc1cccc(NC(=O)c2cc(Cl)ccc2Cl)c1 | 11.1
NC(=O)C(=O)Nc1ccc2c(c1)OCCO2 | 6.8
Cc1ccc(OCCOc2cccc(/C=C3/SC(=S)N(C)C3=O)c2)cc1C | 29.6
Cc1ccc(CN2CCN(Cc3c[nH]c4ccccc34)CC2)cc1 | -8.2
CCC(=O)NC(Nc1cc(C)on1)(C(F)(F)F)C(F)(F)F | 0.8
CCOC(=O)N1CCN(C(=O)/C(=C/c2ccc3c(c2)OCO3)NC(=O)c2cccs2)CC1 | 0.8
C=CCN1C(=O)/C(=C\c2ccc(-c3ccc(C(=O)O)cc3)o2)C(=O)NC1=S | -53.6
COc1ccc(N2C(=O)NC(=O)/C(=C/c3ccc(-c4cccc([N+](=O)[O-])c4)o3)C2=O)cc1 | -12.5
O=C(c1cccc(F)c1)N1CCN(c2ccc(F)cc2)CC1 | -11.6
CC(=O)Oc1ccc(/C=c2/sc3nc(-c4ccc(C(C)(C)C)cc4)nn3c2=O)cc1 | 7.3
COC(=O)c1cccc(N2C(=O)c3cccc([N+](=O)[O-])c3C2=O)c1 | 0.4
COc1ccc(C=Nc2ccccc2C(N)=O)c2ccccc12 | -5.9
Cn1/c(=N/N=C2CCCC2)sc2ccccc21 | 8.2
CCc1ccc(N2CC(C(=O)NC)CC2=O)cc1 (centres undefined) | 4
NC(=O)c1c(NC(=O)COc2ccc(Cl)cc2Cl)sc2c1CCCCCC2 | -7.2
Cn1c2ccccc2n2cc(-c3ccc([N+](=O)[O-])cc3)nc12 | -6.3
Cc1ccccc1NC(=S)NCCOc1ccccc1Cc1ccccc1 | 9.4
Cc1ccc(CC(C)CC(=O)Nc2cc(C)ccc2C)cc1 (centres undefined) | -5.6
Cc1ccc(C2=C/C(=C/c3ccc(-c4ccc([N+](=O)[O-])cc4)o3)C(=O)O2)cc1 | -4.1

SMILES | displacement [%]
Nc1nnc(CC(=O)ON/N=C/c2ccc(-c3ccccc3[N+](=O)[O-])o2)s1 | -4.1
CNC(=O)CN(c1cc(OC)ccc1OC)S(C)(=O)=O | 5.1
COc1ccccc1OCCNC(=O)c1cccc2ccccc12 | -9.7
O=C(/C=C/c1cccs1)N1CCN(C/C=C/c2ccccc2)CC1 | -6.5
O=C(Nc1nc(CC23CC4CC(CC(C4)C2)C3)cs1)c1ccc(F)cc1 | 8.3
N#C/C(=C\c1ccc(Cl)cc1Cl)c1nc(-c2ccc(Br)cc2)cs1 | -4.1
Cc1ccc(CCC(=O)Nc2ccc(Cl)cc2)o1 | -4.5
COc1ccc(CSc2nnnn2C)cc1F | -16.2
O=C(N/N=C/c1c(F)cccc1Cl)c1ccc(O)cc1O | 3.9
O=C(c1ccc(F)c(F)c1)N1CCN(c2cc(N3CCOCC3)c(F)cc2[N+](=O)[O-])CC1 | -7.3
Cc1ccc2nc(NNC(=O)CCC(=O)O)nc(-c3ccccc3)c2c1 | -1.5
Cc1cccc(N=C2NC(=O)/C(=C\c3ccc([N+](=O)[O-])cc3)S2)c1C | 12.8
O=[N+]([O-])c1ccc(-n2nnc3ccccc32)nc1 | 7.7
Cc1cccc(OCCCCN2CCCC2)c1C | -4
COc1ccc(CNC(=O)COc2ccc(C)cc2)cc1 | -15.4
O=C1CC(c2ccc3c(c2)OCO3)CC2=C1C(c1ccccc1OCc1ccccc1)Nc1ccccc1N2 (centres undefined) | 10.5
COc1cccc(NC(=O)Nc2cccc(C(F)(F)F)c2)c1 | -11.2
O=C1NC(=O)C(=Cc2cccc(OCc3ccc(Cl)cc3Cl)c2)C(=O)N1 | -6.6
COC(=O)CN(c1ccc(Cl)c(Cl)c1)S(=O)(=O)c1ccccc1 | -0.9
COc1cccc2c1NC(c1ccc(Br)cc1)C1CC=CC21 (centres undefined) | 11.8
CCN(CC)S(=O)(=O)c1ccc(Cl)c(C(=O)Nc2cccc(C(=O)O)c2)c1 | 2.8
CC(C)N(C(=O)COc1ccc(Cl)cc1Cl)C(C)C | -0.7

SMILES | displacement [%]
O=C(NC1C2CC3CC(C2)CC1C3)c1ccc(Cl)cc1Cl (centres undefined) | -2.2
COCCOC(=O)c1c(C)oc2ccc(OCc3ccccc3Br)cc12 | 6.9
COc1ccc(C2=N/C(=C/c3ccc(F)cc3)C(=O)N2c2ccc(O)cc2)cc1 | 9
CCN(C(=O)c1ccccc1Cl)c1ccccc1 | 13.2
C(=N\N=C(\Cc1nc2ccccc2[nH]1)c1ccccc1)/c1cccs1 | -13.9
CC(=O)CC(=O)Nc1cc(C)cc(C)c1 | 8
C=CCc1c(C)[nH]c2ccc(C(=O)OCC)cc2c1=O | 6.3
COc1cc2oc(=O)c3c(c2cc1Cl)CCCC3 | -3.2
O=C(c1ccc(S(=O)(=O)c2ccccc2)cc1)N1CCOCC1 | -10.6
Cc1cccc(C)c1NC(=O)c1ccc([N+](=O)[O-])cc1 | 3.1
CC1=NN(c2ccc(S(N)(=O)=O)cc2)C(=O)/C1=C\c1ccc(-c2ccc([N+](=O)[O-])cc2)o1 | -1.6
CCOc1cccc(C(=O)Nc2sc(CC)cc2C(=O)OC)c1 | 5.7
COc1ccc(OCCSc2nc3ccccc3n2CC(=O)O)cc1 | 0
COC(=O)c1ccc(C2C(C#N)=C(N)Oc3c2c(C)nn3-c2ccccc2)cc1 (centres undefined) | -11.6
CC1CN(C(=O)c2cc([N+](=O)[O-])cc([N+](=O)[O-])c2N)CC(C)O1 (centres undefined) | 3.9
Cc1ccc(-c2cc(C(=O)Nc3ccncc3)c3ccccc3n2)cc1C | 36.1
Cc1ccc(C=C2C(=O)NC(=O)N(c3cccc(Cl)c3)C2=O)s1 | 87.1
O=C(O)Cc1ccc(/C(=N\O)c2cccs2)s1 | 6.9
COc1cc(NC(=O)COc2cc(C)ccc2C(C)(C)C)c(OC)cc1Cl | -1.9
CC(=O)Oc1ccc(NC2=C(Cl)C(=O)c3ccccc3C2=O)cc1 | -2.1
Cc1ccc2c(c1NC(=O)c1ccc(-c3ccccc3)cc1)C(=O)c1ccccc1C2=O | 0.2
Cc1cc(C(C)(C)C)nc2[nH]n(-c3ccccc3)c(=O)c12 | -2.3

SMILES | displacement [%]
COCCN(CCOC)Cc1c(C)[nH]c2ccccc2c1=O | 2.5
COc1ccc(C(=O)N2CCN(C(=O)c3ccc([N+](=O)[O-])cc3)CC2)cc1 | -8.6
COCCCNC(=O)C(=O)Nc1ccc(Cl)c(C(F)(F)F)c1 | 0.1
Cc1ccccc1C(=O)Nc1ccc2[nH]c(=O)[nH]c2c1 | -0.3
COC(=O)C1=CNC=C(C(=O)OC)C1c1cccc(OCc2ccccc2)c1 | 1.2
COc1ccc(/C=N\NC(=O)c2ccc(Br)cc2)cc1Cl | 3.8
O=C1N/C(=N/c2ccccn2)SC1Cc1cccc(Cl)c1 (centres undefined) | 0.8
CCCOc1cccc(C(=O)Nc2ccc3c4c(cccc24)CC3)c1 | 88.7
O=S(=O)(NCc1ccccc1)c1ccc(Cl)c(S(=O)(=O)NCc2ccccc2)c1 | -8.9
Cc1ccc(C(=O)c2cccc(C(=O)c3ccc(C)cc3)c2)cc1 | 13.3
O=C(O)c1ccc(N2C(=O)CC(N3CCN(c4cccc(Cl)c4)CC3)C2=O)cc1 (centres undefined) | -6.7
CCOc1ccccc1N(CC(=O)NCCc1ccccc1)S(=O)(=O)c1ccccc1 | 1
CCn1cc(C(=O)O)c(=O)c2cc(F)c(N/N=C/c3ccccc3[N+](=O)[O-])cc21 | 11.1
Cc1ccc(S(=O)(=O)N(CC(=O)NC2CCCC2)Cc2ccccc2)cc1 | -0.3
Cc1cc([N+](=O)[O-])c(-c2ccc(C=C3C(=O)c4ccccc4C3=O)o2)cc1Cl | 14
CCOc1cc(C(=O)Nc2cc(C(=O)OC)ccc2C(=O)OC)cc(OCC)c1OCC | -4
CC/C(=C/C(=O)c1ccncc1)Nc1ccc(O)cc1 | 4.4
CCOc1ccccc1C(=O)Nc1nc(-c2ccc(C)cc2C)cs1 | -2.8
COc1ccc(OCC(=O)N2c3ccccc3Sc3ccc(C(F)(F)F)cc32)cc1 | -3.4
Cc1cccc(NC(=O)c2c(NC(=O)C(C)(C)C)sc3c2CCCC3)c1 | -2.2
COc1ccc(CCNC(=O)CN(c2ccccc2C)S(C)(=O)=O)cc1OC | 3.9
CC1CC(C)CN(C(=O)Nc2ccccc2)C1 (centres undefined) | -7.8

SMILES | displacement [%]
Cc1ccc(C(=O)N/N=C/c2c3ccccc3cc3ccccc23)cc1[N+](=O)[O-] | -8.2
O=C(Nc1ccc(NC(=O)c2cccs2)cc1)c1cccs1 | -6.6
CCOc1cc(C2Nc3ccccc3NC3=C2C(=O)CC(c2ccc(OC)cc2)C3)cc(Br)c1O (centres undefined) | 0.4
CC(=O)c1ccc(NC(=O)c2ccc(OCC(C)C)cc2)cc1 | 11.6
Cc1ccc(-c2nc(-c3ccccc3Cl)no2)cc1 | 0.1
O=C(COc1ccc(Cl)cc1Cl)Nc1ccc(Cl)cn1 | 13.2
COc1cc(/C=C2/C(=O)N(c3ccccc3)N=C2C)cc(I)c1O | 13.1
CCCCOn1nnc2ccc([N+](=O)[O-])cc21 | -8.4
O=C(N/N=C/c1ccc(OCc2ccccc2)cc1)c1cnccn1 | 12.3
COc1ccc(Br)cc1C(=O)Nc1cccc(C(C)=O)c1 | 1.3
COc1ccc(NC2(c3ccccc3)C(=O)c3c(Cl)c(Cl)c(Cl)c(Cl)c3C2=O)cc1 | 4.4
C=CCOc1ccc(/C=C2/C(=O)NN(c3ccc(C)c(Cl)c3)C2=O)cc1OC | 15.5
Cc1nc2c(CN3CCCCC3)c(O)ccc2[nH]1 | -16.2
N#Cc1c(N)n(-c2cccc(O)c2)c2nc3ccccc3nc12 | 44.2
COc1c(O)ccc(/C=N\NC(=O)c2ccc3c(c2)OCO3)c1[N+](=O)[O-] | 4.7
Cc1onc(-c2ccccc2)c1C(=O)N1CCN(c2ccc([N+](=O)[O-])cc2)CC1 | 7.3
COc1ccc(C=Nc2ccc3nn(-c4ccccc4)nc3c2)cc1 | 5.2
CC1=CC(C)C(C(=O)O)C(C(=O)Nc2cccnc2)C1 (centres undefined) | -5.7
O=S(=O)(c1ccc(Cl)cc1)N1CCN(C/C=C/c2ccccc2)CC1 | -7.4
COc1ccc(C2NN=C(Cc3ccccc3)S2)cc1 (centres undefined) | -2.8
COc1ccc(C(=O)N2CCN(S(=O)(=O)c3ccc(Cl)cc3)CC2)cc1 | -10.9
